IC50 is the fitted dose that halves viability relative to control wells, and lower means more sensitive; a fit beyond the top or the lowest dose is shown as a bound at that dose. AUC is the area under the same curve over the 256-fold range up to the top dose, as a fraction; values near 1 show little effect. For part of these data: Where the top dose is marked as inferred, it is not printed in the source and was worked back from the curve model. For part of these data: Where an entry number is given, a second screen of the drug exists; the two often differ.
What was measured:
Experiment in all cases: Viability of human cancer cell lines after 72 h of drug (GDSC screen)
SNX-2112 = compound: CC1(C)CC(=O)c2c(C(F)(F)F)nn(-c3ccc(C(N)=O)c(N[C@H]4CC[C@H](O)CC4)c3)c2C1 [SNX-2112]; conditions: top dose 2.56 µM
Method: (§1)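 Human cancer cell lines in 384-well plates, medium with 10% serum, drug for 72 h over a 256-fold dose range (nine 2-fold or five 4-fold steps up to the top dose). Adherent lines were fixed and stained with the nucleic acid dye Syto60, suspension lines read with resazurin; signal relative to control wells, capped at 0 and 100%. One two-parameter sigmoid per drug and line, fitted in a mixed model over all curves with the slope shared within a line.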

Vinblastine = compound: CC[C@]1(O)C[C@@H]2CN(CCc3c([nH]c4ccccc34)[C@@](C(=O)OC)(c3cc4c(cc3OC)N(C)[C@H]3[C@@](O)(C(=O)OC)[C@H](OC(C)=O)[C@]5(CC)C=CCN6CC[C@]43[C@@H]65)C2)C1 [Vinblastine]; conditions: top dose 0.1 µM; top dose inferred
Method: as §1

Afatinib = compound: CN(C)C/C=C/C(=O)Nc1cc2c(Nc3ccc(F)c(Cl)c3)ncnc2cc1O[C@H]1CCOC1 [Afatinib]
Method: as §1

PF-562271 = compound: CN(c1ncccc1CNc1nc(Nc2ccc3c(c2)CC(=O)N3)ncc1C(F)(F)F)S(C)(=O)=O [PF-562271]; conditions: top dose 2.56 µM; top dose inferred
Method: as §1

XMD13-2 = compound: O=C(NC1CC1)c1cccc(-c2ccc3c(NC(=O)C4CC4)n[nH]c3c2)c1 [XMD13-2]; conditions: top dose 10.24 µM; top dose inferred
Method: as §1

[1] = top dose 0.5 µM, screen: GDSC drug entry 1032
[2] = top dose 10 µM, screen: GDSC drug entry 1377, top dose inferred

Row | Cell Line | AUC (SNX-2112) | IC50 (SNX-2112) | AUC (Vinblastine) | IC50 (Vinblastine) | AUC (Afatinib; [1]) | IC50 (Afatinib; [1]) | AUC (Afatinib; [2]) | IC50 (Afatinib; [2]) | AUC (PF-562271) | IC50 (PF-562271) | AUC (XMD13-2) | IC50 (XMD13-2)
1 | LB2241-RCC (kidney, adherent) | 0.977 | > 2.56 µM | 0.562 | 0.00942 µM | 0.607 | 0.0638 µM | 0.28 | 0.137 µM | 0.898 | > 2.56 µM | 0.984 | > 10.2 µM
2 | NCI-H64 (small cell lung carcinoma, suspension) | 0.322 | 0.059 µM | 0.859 | 0.0511 µM | 0.996 | > 0.5 µM | – | – | 0.975 | > 2.56 µM | 0.827 | 4.22 µM
3 | NCI-H1581 (large cell lung carcinoma, semi-adherent) | 0.876 | 2.18 µM | 0.475 | 0.00539 µM | 0.99 | > 0.5 µM | 0.979 | > 10 µM | 0.986 | > 2.56 µM | 0.885 | 9.64 µM
4 | OCUM-1 (stomach, adherent) | 0.957 | > 2.56 µM | 0.741 | 0.0333 µM | 0.986 | > 0.5 µM | 0.985 | > 10 µM | 0.947 | > 2.56 µM | 0.976 | > 10.2 µM
5 | TT (thyroid, adherent) | 0.905 | > 2.56 µM | 0.908 | > 0.1 µM | 0.972 | > 0.5 µM | 0.978 | > 10 µM | 0.977 | > 2.56 µM | 0.983 | > 10.2 µM
6 | JIMT-1 (breast, adherent) | 0.846 | 2.09 µM | 0.424 | 0.0038 µM | 0.921 | > 0.5 µM | 0.869 | > 10 µM | 0.936 | > 2.56 µM | 0.981 | > 10.2 µM
7 | ML-2 (acute myeloid leukaemia, suspension) | 0.18 | 0.0203 µM | 0.562 | 0.00903 µM | 0.988 | > 0.5 µM | 0.989 | > 10 µM | 0.871 | 1.97 µM | 0.806 | 4.51 µM
8 | CAL-33 (head and neck, adherent) | 0.487 | 0.148 µM | 0.358 | 0.00252 µM | 0.569 | 0.0483 µM | 0.609 | 1.24 µM | 0.78 | 1.06 µM | 0.819 | 5.83 µM
9 | EFO-27 (ovary, adherent) | 0.638 | 0.426 µM | 0.541 | 0.00832 µM | 0.591 | 0.0591 µM | 0.929 | > 10 µM | 0.846 | > 2.56 µM | 0.954 | > 10.2 µM
10 | SW1417 (large intestine, adherent) | 0.868 | > 2.56 µM | 0.928 | > 0.1 µM | 0.954 | > 0.5 µM | 0.941 | > 10 µM | 0.976 | > 2.56 µM | 0.964 | > 10.2 µM
11 | AN3-CA (endometrium, adherent) | 0.865 | > 2.56 µM | 0.568 | – | 0.971 | > 0.5 µM | 0.971 | > 10 µM | 0.812 | 1.53 µM | 0.948 | > 10.2 µM
12 | RPMI-6666 (Hodgkin lymphoma, suspension) | 0.225 | 0.0208 µM | 0.655 | 0.0184 µM | 0.976 | > 0.5 µM | 0.972 | > 10 µM | 0.92 | > 2.56 µM | 0.77 | 4.67 µM
13 | EW-7 (Ewing sarcoma, semi-adherent) | 0.235 | 0.0308 µM | 0.866 | 0.0719 µM | 0.981 | > 0.5 µM | 0.983 | > 10 µM | 0.908 | > 2.56 µM | 0.876 | 8.06 µM
14 | NB-4 (acute myeloid leukaemia, suspension) | 0.132 | 0.0155 µM | 0.212 | 0.0011 µM | 0.991 | > 0.5 µM | 0.978 | > 10 µM | 0.841 | 1.33 µM | 0.538 | 0.795 µM
15 | EW-3 (Ewing sarcoma, adherent) | 0.487 | 0.147 µM | 0.631 | 0.0152 µM | 0.98 | > 0.5 µM | 0.895 | > 10 µM | 0.984 | > 2.56 µM | 0.881 | > 10.2 µM
16 | TE-11 (oesophagus, adherent) | 0.959 | > 2.56 µM | 0.383 | 0.00307 µM | 0.944 | > 0.5 µM | 0.904 | > 10 µM | 0.832 | 1.45 µM | 0.938 | > 10.2 µM
17 | HCC-56 (large intestine, adherent) | 0.745 | 0.821 µM | 0.873 | > 0.1 µM | 0.944 | > 0.5 µM | 0.845 | 7.46 µM | 0.935 | > 2.56 µM | 0.898 | > 10.2 µM
18 | HuO9 (osteosarcoma, adherent) | 0.874 | > 2.56 µM | 0.62 | 0.0139 µM | 0.963 | > 0.5 µM | 0.965 | > 10 µM | 0.909 | > 2.56 µM | 0.974 | > 10.2 µM
19 | KMH-2 (thyroid, adherent) | 0.949 | > 2.56 µM | 0.333 | 0.00228 µM | 0.989 | > 0.5 µM | 0.986 | > 10 µM | 0.793 | 1.03 µM | 0.94 | > 10.2 µM
20 | NCI-H847 (small cell lung carcinoma, adherent) | 0.218 | 0.0297 µM | 0.803 | 0.0388 µM | 0.993 | > 0.5 µM | 0.991 | > 10 µM | 0.918 | > 2.56 µM | 0.825 | 4.64 µM
21 | KP-N-YN (neuroblastoma, adherent) | 0.807 | 1.46 µM | 0.787 | 0.0479 µM | 0.984 | > 0.5 µM | 0.979 | > 10 µM | 0.963 | > 2.56 µM | 0.964 | > 10.2 µM
22 | COR-L279 (small cell lung carcinoma, suspension) | 0.715 | 0.598 µM | 0.862 | 0.0711 µM | 0.991 | > 0.5 µM | 0.975 | > 10 µM | 0.963 | > 2.56 µM | 0.887 | 9.3 µM

Reference: the supplement of paper PMC4967469
